Test results as given in the RNAGym collection of RNA variant scans (doi:10.7554/elife.90254).
Read counts are not given, so values of variants with three or more changes are uncertain.

B1: LINE1-mini (parent)
chain: GGCAGAGCUCAACACAGCGUGGCAAAGUGGCUGUGGCUAGACUGCC

Variants of: B1
Test: self-cleavage, relative activity (ratio to wild type); higher = more cleavage; in vitro, sequencing; the parent is a self-cleaving ribozyme

Row | Variant | self-cleavage
1 | G7A C8A G21A G22C G40C | 0.12
2 | G2C G17C A25U G27C G30C | 0.03
3 | C3A A4G G5U A24C A26U | 0.04
4 | C13U G19A G21U A26G | 0.11
5 | G5C G17A G33U | 0.03
6 | C18A G21C A26U G40A | 0.01
7 | G2A A11G A24C | 0.01
8 | G5C G21A G30U C42U C46A | 0.07
9 | U9C C15U G36U U43G G44U | 0.01
10 | U9C G33C G35U | 0.03
11 | G17C U28C G36U | 0.01
12 | A6G C10G A24U A41U | 0.02
13 | A12C U28G A41G | 0.01
14 | C8U A16G U32C | 0.02
15 | G17U G40A U43C | 0.03
16 | A4G G7C G21C G29U C31U | 0.04
17 | C3U A4G C10U | 0.04
18 | U9C G17U G27A G33A | 0.03
19 | C3G A26U U38C | 0.06
20 | U9G C13A A24C | 0.11
21 | C3A U32C C46A | 0.08
22 | C3U A6G C15G G17A A26U G27C G29C U32A U43C | 0.01
23 | C3A U9G C13A C31A G35U | 0.3
24 | G22U G29U C45U | 0.61

Row | Variant | self-cleavage
25 | A16C C42G C46U | 0.17
26 | G17U C31U G33A U38G | 0.05
27 | U20G G27U G30U A39U | 0.34
28 | C18U G22A G30U C31U G44U | 0.01
29 | C10U G19A C31U A41G | 0.03
30 | G2C C15U G19A C31U | 0.02
31 | G1A G5U A12G C15G G44U | 0.05
32 | A16C G17U C45A C46G | 0.03
33 | C15U G36U U43G | 0
34 | G7C C18A G21C | 0.06
35 | G17U G22C G33A | 0.05
36 | G2A G7A C15A U32C G36C | 0.17
37 | G5U A12C G33A C37G | 0.02
38 | G2U C15A A24U | 0.02
39 | C18G G30A U34G G40A | 0.01
40 | C8U A12G A26G | 0.28
41 | G2A G7A A14G C18A U38G | 0.13
42 | C3A C23G C31U G44U C46A | 0.02
43 | G5A A16C G33C | 0.03
44 | C13G G29U C45U | 0.3
45 | G2A C8U G22U C46A | 0.18
46 | U34G G35C A39G | 0.01
47 | A11C G17C G19U A39G | 0.01
48 | G2C G21U G30A | 0.28

Row | Variant | self-cleavage
49 | C15A U34A C42A | 0.03
50 | C10U A16C G27A | 0.11
51 | C8G A12U G17A | 0.03
52 | A4C A25C G30C C31A | 0.42
53 | C8U C13A A25G G30U G35U | 0.1
54 | U9A U20A G29A G30A | 0.06
55 | U9G C10G G19A | 0.02
56 | U9A C10A C45A | 0.03
57 | G1C G33U U34G C45U | 0.01
58 | C3G G5U A11C A12C G33C | 0.07
59 | C13U G17A G22A | 0
60 | A4C A25U G29U G30A C42A | 0.09
61 | C10U U28C A39U | 0.38
62 | A4G G17U C18A | 0.22
63 | C3U C10A G22A A26G U28A | 0.02
64 | G5A G7A G33C | 0.16
65 | C13A G29U G30C | 0.21
66 | C8U U20C A24C G29U U34C C37G | 0.01
67 | A16U G22A U34C | 0.03
68 | C15A C18A A25C C37G | 0.02
69 | A16U U20A G27A G29U | 0.16
70 | A4U G5A G17U G19U | 0.02
71 | C18A G36A C42U U43G | 0.11
72 | G5A G30C C37G G40A | 0.04

Row | Variant | self-cleavage
73 | G1C A6C G7U C23A G36U A39C C45A | 0.01
74 | U9G A12G A16U G30C | 0.02
75 | C18A A26U G30A | 0.99
76 | C18A C23U A24C U34G U38G | 0.04
77 | A16G G19U G36U U38A A41U | 0.01
78 | G7C G22U C23A | 0.2
79 | G7U A26C G30C A39U C42G | 0
80 | A6G G22U G30C G35A G40A | 0.03
81 | U28C C37G A41G | 0.01
82 | A14U G17U U32C A39C | 0.08
83 | G5C G30A C31G | 0.02
84 | C10A G30U G33U A39G | 0
85 | A4C A25U C31A U38G | 0.01
86 | C23U U34A C37G | 0.01
87 | G5U A39G C46A | 0.02
88 | U20G C23A C46U | 0.66
89 | C23U G27A A41C | 0.07
90 | C13G A14C A25U U32G G36U | 0.02
91 | G19C U20A G22U A26U G33A A41C | 0.01
92 | A25C C45U C46G | 0.05
93 | G2A G21A U28G | 2.71
94 | C18U C23A C31U | 0.03
95 | A4U U9A U43G C45U | 0.37
96 | A4U C15G U43A | 0

Row | Variant | self-cleavage
97 | C23A A24U G36A | 0.17
98 | C8U A16C G44C | 0.12
99 | C3G A6G C15U A26U G36A U38G | 0.23
100 | G1A A6C G33U A39C | 0.07
101 | A14G G17U G22C C23A C37U A41G | 0.05
102 | G5C U28C G33U A39C G40A | 0.06
103 | U9A A24U G30A | 0.15
104 | A11U A12G C13G | 0
105 | C18U U20C C23A | 0.74
106 | A24G G29C G44C | 0.11
107 | A11G U32G G33C U43A | 0
108 | G5U G36U C42G | 0
109 | C10A G19C G22C U32C G36C | 0.01
110 | G21U U32A A39U | 0.01
111 | A11C A14G C31U | 0.05
112 | A4U A26C U28G C31G | 0.05
113 | U9C C10G A11C U32G | 0.01
114 | A12G U28A C46G | 0.05
115 | C10A C18G A26U C31U | 0.02
116 | A4G A12U C13U A14G | 0.19
117 | C8U C18G G30A | 0.09
118 | G5C G21A G27U | 0.07
119 | G1U G7U C31U | 0.03
120 | G2A G17U G22C G27U | 0.48

Row | Variant | self-cleavage
121 | G7A C13U U20A | 0.77
122 | G19U G40C U43C | 0.09
123 | A4U G17C A24C | 0.06
124 | C13U U28G G40C | 0.03
125 | C8A U20C C23U A24C | 0.06
126 | A12U C13G A41U C42U | 0.05
127 | G5A G7U U9A C13A C18U | 0.04
128 | G7U C10G G17U U20G | 0.03
129 | G7A A16G A26U | 0.12
130 | G30A C42U C45G | 0.07
131 | A12G C18U G19A | 0.03
132 | G1U G19A A26C C31A C45U | 0.06
133 | C10A G17A A41C | 0.04
134 | G17C A24G U28G C31G C45U | 0.08
135 | G5U A11G G21U A25U U43C | 0.11
136 | U20A G21U U32C | 0.85
137 | G21C G22U G44U | 0.19
138 | G5C C10A U28G | 0.03
139 | G5A C8G G27C C31U | 0.02
140 | A6G A14C C15A U34G G44A | 0.01
141 | A11C A12U C15G | 0.04
142 | A25G U32G C37U | 0.15
143 | G1C C3A C8A C13G C18G C45A | 0.09
144 | C10A C15A U20G | 0.02

Row | Variant | self-cleavage
145 | G17C G29A G30U G36U C45U | 0.01
146 | G1A G30A C31U | 0.22
147 | G2C C10A C13U C15A C42A | 0
148 | U9C A14C C23A | 0.04
149 | C3A C10U C18G C23G G40C | 0.02
150 | G5U U9A U34C C37U | 0.23
151 | C3U G27U G44A | 1.77
152 | A12U A14G C31A | 0
153 | C3G C31A G35C | 0.02
154 | G2A C10A G21U U28C | 0.03
155 | C31A U34G G36U C37A C42A | 0
156 | C3A U28C G29A C37G A39C | 0.03
157 | G19A G36A A39C | 0.04
158 | G2C U28C U32C G35A C37A A39G | 0.04
159 | C13A U34C A41G | 0.08
160 | C8U C10U C18A C46A | 0.06
161 | A6C A12G C18U G22C C31G U34A G36U | 0.02
162 | C3U A4U G17C G44A | 0.02
163 | G7A C37U G44U C46U | 0.07
164 | G1C U32G G44C | 0.02
165 | C3A A25C G29A C45A | 0.11
166 | G1C U9C A11G C13G G27C A41U C45G | 0
167 | C8U G17U A25U A41C | 0.11
